In article PMC9911399, “Two distinct binding modes provide the RNA-binding protein RbFox with extraordinary sequence specificity”:
Substitutions are numbered along the chain they refer to; changes in the protein carry UniProt numbers. This is one part of the list.

B1: GCGUUAU (DNA:RNA)
RNA: GGGAGACCGGAAUUCAGAUUGUCCGCGUUAUUUAAAUCCCGUCGUAGCCACCA
DNA 1: CAATCTGAATTCCGGTCTCCC
DNA 2: TGGTGGCTACGACGGGATT
B2: GUCCCUU (DNA:RNA)
RNA: B1 RNA with C26U, G27C, U28C, U29C, A30U
DNA 1: CAATCTGAATTCCGGTCTCCC
DNA 2: TGGTGGCTACGACGGGATT
B3: CAGCUUC (DNA:RNA)
RNA: B1 RNA with G25C, C26A, U28C, A30U, U31C
DNA 1: CAATCTGAATTCCGGTCTCCC
DNA 2: TGGTGGCTACGACGGGATT
B4: GACACCU (DNA:RNA)
RNA: B1 RNA with C26A, G27C, U28A, U29C, A30C
DNA 1: CAATCTGAATTCCGGTCTCCC
DNA 2: TGGTGGCTACGACGGGATT
B5: GGGGGCG (DNA:RNA)
RNA: B1 RNA with C26G, U28G, U29G, A30C, U31G
DNA 1: CAATCTGAATTCCGGTCTCCC
DNA 2: TGGTGGCTACGACGGGATT
B6: UGCACCC (DNA:RNA)
RNA: GGGAGACCGGAAUUCAGAUUGUCCUGCACCCUUAAAUCCCGUCGUAGCCACCA
DNA 1: CAATCTGAATTCCGGTCTCCC
DNA 2: TGGTGGCTACGACGGGATT
B7: CUUGUGU (DNA:RNA)
RNA: B1 RNA with G25C, C26U, G27U, U28G, A30G
DNA 1: CAATCTGAATTCCGGTCTCCC
DNA 2: TGGTGGCTACGACGGGATT
B8: GCCGCCA (DNA:RNA)
RNA: B6 RNA with U25G, G26C, A28G, C31A
DNA 1: CAATCTGAATTCCGGTCTCCC
DNA 2: TGGTGGCTACGACGGGATT
B9: GUGUGAU (DNA:RNA)
RNA: B1 RNA with C26U, U29G
DNA 1: CAATCTGAATTCCGGTCTCCC
DNA 2: TGGTGGCTACGACGGGATT
B10: UUACCGG (DNA:RNA)
RNA: B6 RNA with G26U, C27A, A28C, C30G, C31G
DNA 1: CAATCTGAATTCCGGTCTCCC
DNA 2: TGGTGGCTACGACGGGATT
B11: UUAACGC (DNA:RNA)
RNA: B6 RNA with G26U, C27A, C30G
DNA 1: CAATCTGAATTCCGGTCTCCC
DNA 2: TGGTGGCTACGACGGGATT
B12: CUAAGAA (DNA:RNA)
RNA: B1 RNA with G25C, C26U, G27A, U28A, U29G, U31A
DNA 1: CAATCTGAATTCCGGTCTCCC
DNA 2: TGGTGGCTACGACGGGATT
B13: UAUCUAC (DNA:RNA)
RNA: B1 RNA with G25U, C26A, G27U, U28C, U31C
DNA 1: CAATCTGAATTCCGGTCTCCC
DNA 2: TGGTGGCTACGACGGGATT
B14: GGUUCUG (DNA:RNA)
RNA: B1 RNA with C26G, G27U, U29C, A30U, U31G
DNA 1: CAATCTGAATTCCGGTCTCCC
DNA 2: TGGTGGCTACGACGGGATT
B15: GGGUAUC (DNA:RNA)
RNA: B1 RNA with C26G, U29A, A30U, U31C
DNA 1: CAATCTGAATTCCGGTCTCCC
DNA 2: TGGTGGCTACGACGGGATT
B16: AUAACAA (DNA:RNA)
RNA: B6 RNA with U25A, G26U, C27A, C30A, C31A
DNA 1: CAATCTGAATTCCGGTCTCCC
DNA 2: TGGTGGCTACGACGGGATT
B17: AAAUAAU (DNA:RNA)
RNA: B1 RNA with G25A, C26A, G27A, U29A
DNA 1: CAATCTGAATTCCGGTCTCCC
DNA 2: TGGTGGCTACGACGGGATT
B18: UCGCGAA (DNA:RNA)
RNA: B1 RNA with G25U, U28C, U29G, U31A
DNA 1: CAATCTGAATTCCGGTCTCCC
DNA 2: TGGTGGCTACGACGGGATT
B19: UUGGAGU (DNA:RNA)
RNA: B1 RNA with G25U, C26U, U28G, U29A, A30G
DNA 1: CAATCTGAATTCCGGTCTCCC
DNA 2: TGGTGGCTACGACGGGATT
B20: AAACUUG (DNA:RNA)
RNA: B1 RNA with G25A, C26A, G27A, U28C, A30U, U31G
DNA 1: CAATCTGAATTCCGGTCTCCC
DNA 2: TGGTGGCTACGACGGGATT
B21: CUUUUUU (DNA:RNA)
RNA: B1 RNA with G25C, C26U, G27U, A30U
DNA 1: CAATCTGAATTCCGGTCTCCC
DNA 2: TGGTGGCTACGACGGGATT
B22: AUCAUGA (DNA:RNA)
RNA: B6 RNA with U25A, G26U, C29U, C30G, C31A
DNA 1: CAATCTGAATTCCGGTCTCCC
DNA 2: TGGTGGCTACGACGGGATT
B23: UGUGGGA (DNA:RNA)
RNA: B6 RNA with C27U, A28G, C29G, C30G, C31A
DNA 1: CAATCTGAATTCCGGTCTCCC
DNA 2: TGGTGGCTACGACGGGATT
B24: UCCCCGC (DNA:RNA)
RNA: B6 RNA with G26C, A28C, C30G
DNA 1: CAATCTGAATTCCGGTCTCCC
DNA 2: TGGTGGCTACGACGGGATT
B25: GGAUCUG (DNA:RNA)
RNA: B1 RNA with C26G, G27A, U29C, A30U, U31G
DNA 1: CAATCTGAATTCCGGTCTCCC
DNA 2: TGGTGGCTACGACGGGATT
B26: UUUGGUA (DNA:RNA)
RNA: B6 RNA with G26U, C27U, A28G, C29G, C30U, C31A
DNA 1: CAATCTGAATTCCGGTCTCCC
DNA 2: TGGTGGCTACGACGGGATT
B27: UACUUGA (DNA:RNA)
RNA: B1 RNA with G25U, C26A, G27C, A30G, U31A
DNA 1: CAATCTGAATTCCGGTCTCCC
DNA 2: TGGTGGCTACGACGGGATT
B28: CCAGCUG (DNA:RNA)
RNA: B1 RNA with G25C, G27A, U28G, U29C, A30U, U31G
DNA 1: CAATCTGAATTCCGGTCTCCC
DNA 2: TGGTGGCTACGACGGGATT
B29: GAAAAAC (DNA:RNA)
RNA: B1 RNA with C26A, G27A, U28A, U29A, U31C
DNA 1: CAATCTGAATTCCGGTCTCCC
DNA 2: TGGTGGCTACGACGGGATT
B30: GAGUGAA (DNA:RNA)
RNA: B1 RNA with C26A, U29G, U31A
DNA 1: CAATCTGAATTCCGGTCTCCC
DNA 2: TGGTGGCTACGACGGGATT
B31: UGGGCUC (DNA:RNA)
RNA: B6 RNA with C27G, A28G, C30U
DNA 1: CAATCTGAATTCCGGTCTCCC
DNA 2: TGGTGGCTACGACGGGATT

Each binder was assayed against T1, RBFOX1 RRM RbFoxmut (Fox-RRM*) (Homo sapiens, UniProt Q9NWB1 109-208, R118D;E147R;N151S;E152T) (assay: EMSA; HiTS-Eq, 1 nM pool, 10 min; buffer printed only for the single-RNA assays: 10 mM Tris pH 7.5, 150 mM NaCl, 3.4 mM EDTA, 0.001% NP-40, 30 C). Details: tags: His6 N-terminal (pET28a); label: 5' 32P.
T1 sequence: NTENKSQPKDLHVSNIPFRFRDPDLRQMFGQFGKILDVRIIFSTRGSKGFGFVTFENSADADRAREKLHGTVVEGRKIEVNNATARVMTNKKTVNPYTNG
How it was run: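 Purified RbFox RRM (wild type or mutant) was equilibrated for 10 min in 50 µL with 1 nM of a 5′-radiolabelled pool of RNA with 7 randomized nucleotides, its flanks annealed to DNA oligonucleotides, across increasing protein concentrations. Free RNA was separated by 8% native PAGE, excised, reverse-transcribed, PCR-barcoded and sequenced on an Illumina HiSeq 2500. Relative association constants came from read-count changes of each variant against the control reaction, normalised to the cognate motif.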

Row | Binder | binding signal
1 | B1 | 0.0949 KA relative to UGCAUGU
2 | B2 | 0.0619 KA relative to UGCAUGU
3 | B3 | 0.0808 KA relative to UGCAUGU
4 | B4 | 0.0627 KA relative to UGCAUGU
5 | B5 | 0.162 KA relative to UGCAUGU
6 | B6 | 0.127 KA relative to UGCAUGU
7 | B7 | 0.195 KA relative to UGCAUGU
8 | B8 | 0.0838 KA relative to UGCAUGU
9 | B9 | 0.127 KA relative to UGCAUGU
10 | B10 | 0.0711 KA relative to UGCAUGU
11 | B11 | 0.0819 KA relative to UGCAUGU
12 | B12 | 0.0809 KA relative to UGCAUGU
13 | B13 | 0.0777 KA relative to UGCAUGU
14 | B14 | 0.208 KA relative to UGCAUGU
15 | B15 | 0.409 KA relative to UGCAUGU
16 | B16 | 0.0696 KA relative to UGCAUGU

Row | Binder | binding signal
17 | B17 | 0.108 KA relative to UGCAUGU
18 | B18 | 0.105 KA relative to UGCAUGU
19 | B19 | 0.144 KA relative to UGCAUGU
20 | B20 | 0.0923 KA relative to UGCAUGU
21 | B21 | 0.0683 KA relative to UGCAUGU
22 | B22 | 0.127 KA relative to UGCAUGU
23 | B23 | 0.0829 KA relative to UGCAUGU
24 | B24 | 0.0928 KA relative to UGCAUGU
25 | B25 | 0.14 KA relative to UGCAUGU
26 | B26 | 0.165 KA relative to UGCAUGU
27 | B27 | 0.112 KA relative to UGCAUGU
28 | B28 | 0.118 KA relative to UGCAUGU
29 | B29 | 0.0554 KA relative to UGCAUGU
30 | B30 | 0.103 KA relative to UGCAUGU
31 | B31 | 0.115 KA relative to UGCAUGU
